Source: PubChem BioAssay AID445 (National Center for Advancing Translational Sciences (NCATS), 2006)
The campaign covered roughly 110,000 compounds. About 40 (0.04%) were called active. This list was built around the results that the source calls inconclusive (neither active nor inactive); the mix of calls is not that of the screen. The call rests on the fitted dose curve; in most records, active means well fitted curve in the direction sought with a large enough effect in the signal ratio (not every such curve was filed as active); inconclusive means small, poorly fitted or top-dose-only effect, or a change in a side signal; inactive means flat fitted curve, though single readings scatter; the % refers to the signal ratio. A potency beside an inconclusive call is a rough fit, not a confirmed value.

Test: IkB Signaling;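 on IkBa stabilization activation: 0% = basal untreated cells and 100% = reference inhibitor full response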
Settings: ABC-DLBCL IkBa-CBG/CBR dual luciferase ratio (green luciferase fused to IkBa over red control in OCI-Ly3 lymphoma cells), 4 h; IkBa stabilization activation: at 57.1 µM (top of the series), scaled: untreated 0%, proteasome inhibitor 100% unless noted
In short: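 Luminescence ratio of IκBα-fused green versus native red beetle luciferase in OCI-Ly3 cells, 4 h post-doxycycline with compound; red signal alone, scaled from basal (0%) to zero light (-100%), flagged nonspecific or cytotoxic effects.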
Potency means the concentration at half of the fitted maximal effect.

With `Cc1ccc(S(=O)(=O)C(CNC(=O)c2ccccc2F)c2cccs2)cc1` (configuration not stated) as the compound, how does the IkBa stabilization activation read?
The IkBa stabilization activation was inconclusive: 1.11% [signal inhibitor].

With `Cc1cccc(CN2CCN(CC(=O)NCc3ccc(Cl)cc3)C2=O)c1` as the compound, how does the IkBa stabilization activation read?
The IkBa stabilization activation was inconclusive: 0.65% [signal inhibitor].

Which IkBa stabilization activation does the source give for `Cc1cc(C)cc(NS(=O)(=O)c2ccc3c(c2)CCCN3C(=O)C2CCC2)c1` here?
Its IkBa stabilization activation is inconclusive: 7.61% [signal inhibitor].

For `O=C(Nc1ccccc1)N1CCN(Cc2ccc3c(c2)OCO3)CC1`, which IkBa stabilization activation is on record?
The IkBa stabilization activation was “inactive”.

With `N#C/C(C(=O)N1CCOCC1)=C1\Nc2ccccc2S1` as the compound, how does the Potency read?
Its Potency is inconclusive: 15.8 µM [signal inhibitor, partial curve].

Which IkBa stabilization activation does the source give for `CCOc1ccccc1NS(=O)(=O)c1ccc(-c2cnc(C3CC3)o2)cc1` here?
Its IkBa stabilization activation is inconclusive: 15.1% [signal activator].

With `COc1cccc(CSc2nc3sc(C)c(C)c3c(=O)n2Cc2ccco2)c1` as the compound, how does the IkBa stabilization activation read?
Its IkBa stabilization activation is “inactive”.

Which IkBa stabilization activation does the source give for `COC(=O)CSc1nsc(SCC(=O)OC)c1C#N` here?
Its IkBa stabilization activation is inconclusive: 2.97% [signal inhibitor].

With `Cc1c(Cl)cccc1NC(=O)c1ncn(-c2ccccc2)n1` as the compound, how does the Potency read?
The Potency was inconclusive: 3.16 µM [signal inhibitor, partial curve].

Which IkBa stabilization activation does the source give for `CC(=O)Nc1ccc(NC(=O)c2oc3ccc4c(c3c2C)C(=O)CC(C)(C)O4)cc1` here?
The IkBa stabilization activation was inconclusive: -1.18% [signal inhibitor].

Which Potency does the source give for `O=c1c(N2CCc3ccccc3C2)csc2ccccc12` here?
Its Potency is inconclusive: 20 µM [signal inhibitor, partial curve].

For `COc1ccc(Cn2nnnc2C(C(C)C)N2CCN(c3ccccc3OC)CC2)cc1` (configuration not stated), which IkBa stabilization activation is on record?
Its IkBa stabilization activation is “inactive”.

Which IkBa stabilization activation does the source give for `CCOc1ccc(-c2nc3c(c(SCC(=O)N4CCCCC4)n2)Cc2ccccc2O3)cc1` here?
The IkBa stabilization activation was inconclusive: 0.516% [signal inhibitor].

For `O=C(C1CCCN(S(=O)(=O)c2ccc(Br)s2)C1)N1CCN(c2ccccc2)CC1` (configuration not stated), which IkBa stabilization activation is on record?
The IkBa stabilization activation was inconclusive: 12.6% [signal inhibitor].

With `CC(=O)N1CCCc2cc(S(=O)(=O)N3CCCC(C(=O)Nc4cc(Cl)ccc4C)C3)ccc21` (configuration not stated) as the compound, how does the IkBa stabilization activation read?
The IkBa stabilization activation was inconclusive: 1.41% [signal inhibitor].

With `C=Cc1ccc(Cn2c(C(=O)O)c(CNCc3ccccc3)c3ccc(C)cc32)cc1` as the compound, how does the IkBa stabilization activation read?
Its IkBa stabilization activation is inconclusive: 0.914% [signal inhibitor].

With `COc1nc(Nc2ccc(O)cc2)nc(OC(C(F)(F)F)C(F)(F)F)n1` as the compound, how does the IkBa stabilization activation read?
The IkBa stabilization activation was “inactive”.

Which IkBa stabilization activation does the source give for `CCCCN(C)C(=O)C1CCC(CNS(=O)(=O)c2ccc(Cl)cc2)CC1` (configuration not stated) here?
Its IkBa stabilization activation is inconclusive: -4.78% [signal inhibitor].

For `C=C(C)CSC1=C(C#N)C(c2ccccc2Cl)CC(=O)N1` (configuration not stated), which IkBa stabilization activation is on record?
The IkBa stabilization activation was “inactive”.

For `COC(=O)c1ccc(CSc2nc3c(cnn3-c3ccc(Cl)cc3)c(=O)[nH]2)o1`, which IkBa stabilization activation is on record?
The IkBa stabilization activation was “inactive”.

For `O=C(Cn1ncc2c1-c1ccccc1OC2)Nc1ccc(Cl)cn1`, which IkBa stabilization activation is on record?
Its IkBa stabilization activation is inconclusive: -0.484% [signal inhibitor].

For `Cc1ccc(CS(=O)(=O)c2ncc(Cl)c(C(=O)Nc3nc4ccc(F)cc4s3)n2)cc1`, which IkBa stabilization activation is on record?
The IkBa stabilization activation was inconclusive: -3.3% [signal inhibitor].

For `COC(=O)[C@H]1[C@H]2C[C@H]3c4[nH]c5ccccc5c4CCN3C[C@@H]2CC[C@@H]1O`, which Potency is on record?
The Potency was inconclusive: 31.6 µM [rising, partial curve].

With `CCN(C(=O)c1cn(C)c(=O)c2cc(OC)c(OC)cc12)c1ccccc1C` as the compound, how does the IkBa stabilization activation read?
The IkBa stabilization activation was “inactive”.

For `Cc1oc(-c2cccc(Cl)c2)nc1CN1CCCC(C(=O)NCc2ccco2)C1` (configuration not stated), which IkBa stabilization activation is on record?
Its IkBa stabilization activation is inconclusive: -0.63% [signal inhibitor].

With `Cc1ccc(NS(=O)(=O)c2ccc3c(c2)CCCN3C(=O)C2CCC2)cc1Cl` as the compound, how does the IkBa stabilization activation read?
Its IkBa stabilization activation is inconclusive: -0.152% [signal inhibitor].

With `Nc1c(C(=O)Nc2ccc(C(=O)O)cc2)sc2nc3c(cc12)CCCC3` as the compound, how does the Potency read?
The Potency was inconclusive: 2.51 µM [signal inhibitor, full curve].

With `COc1ccccc1-c1nccc(N2CCN(C)CC2)n1` as the compound, how does the IkBa stabilization activation read?
Its IkBa stabilization activation is inactive: 0.73% [at 11.4 µM, scaled: untreated 0%, proteasome inhibitor 100%].

For `C=CCn1c(=O)c2ccccc2n2c(SC(C)C(=O)Nc3nc(-c4ccccc4)cs3)nnc12` (configuration not stated), which IkBa stabilization activation is on record?
The IkBa stabilization activation was inconclusive: 1.67% [signal inhibitor].

With `Cc1nc2nncn2c(NCc2ccc(F)cc2)c1C` as the compound, how does the IkBa stabilization activation read?
The IkBa stabilization activation was inconclusive: -2.01% [signal inhibitor].

For `O=C(NCc1ccc2c(c1)CCN2C(=O)c1ccc(Cl)cc1)c1cccc(F)c1`, which IkBa stabilization activation is on record?
Its IkBa stabilization activation is inconclusive: 0.641% [signal inhibitor].

With `O=C1O[C@@H]([C@H](O)[C@H](O)[C@H](O)CO)[C@@H](O)[C@@H]1O` as the compound, how does the IkBa stabilization activation read?
Its IkBa stabilization activation is inactive: -1.09% [at 11.4 µM, scaled: untreated 0%, proteasome inhibitor 100%].

Which IkBa stabilization activation does the source give for `O=C(Nc1nnc(S(=O)(=O)Nc2ccccc2)s1)c1ccccc1Cl` here?
Its IkBa stabilization activation is inconclusive: 1.92% [signal inhibitor].

With `Cc1cccc(CNC(=O)CCn2ccc3cc(S(=O)(=O)N4CCCC4)ccc32)c1` as the compound, how does the IkBa stabilization activation read?
The IkBa stabilization activation was inconclusive: 0.136% [signal inhibitor].

With `COc1ccc(OC)c(CCNC(=O)c2cnn(-c3ccccc3)c2C2CCN(C(=O)OC(C)(C)C)CC2)c1` as the compound, how does the IkBa stabilization activation read?
Its IkBa stabilization activation is inconclusive: -3.06% [signal inhibitor].

Which IkBa stabilization activation does the source give for `O=c1c(N2CCN(c3cccc(C(F)(F)F)c3)CC2)csc2ccc(Cl)cc12` here?
Its IkBa stabilization activation is inconclusive: 2.66% [signal inhibitor].

With `Cc1nn(C)c2c1c(-c1ccccc1)cc(=O)n2C(C)C(=O)NCc1ccc(F)cc1` (configuration not stated) as the compound, how does the IkBa stabilization activation read?
The IkBa stabilization activation was “inactive”.

Which Potency does the source give for `O=C1CC(c2ccccc2)Cc2[nH]c(=O)c(-c3nc(-c4ccc(Cl)cc4)cs3)cc21` (configuration not stated) here?
Its Potency is inconclusive: 10 µM [signal inhibitor].

Which IkBa stabilization activation does the source give for `CCN1CCN(C(c2cccc(F)c2)c2c(O)cc(C)n(Cc3ccco3)c2=O)CC1` (configuration not stated) here?
The IkBa stabilization activation was inconclusive: 2.59% [signal inhibitor].

With `CC(=O)c1cccc(NC(c2ccc(F)cc2)c2nnc(-c3ccccc3)o2)c1` (configuration not stated) as the compound, how does the IkBa stabilization activation read?
Its IkBa stabilization activation is inconclusive: -1.03% [signal inhibitor].

For `c1ccc(-c2nnc(N3CCN(c4ccccn4)CC3)c3ccccc23)cc1`, which IkBa stabilization activation is on record?
Its IkBa stabilization activation is inconclusive: -4.1% [signal inhibitor].

Which IkBa stabilization activation does the source give for `Cc1ccc(-n2nnnc2CNC(=O)C(C)C)cc1C` here?
Its IkBa stabilization activation is inconclusive: 1.3% [signal inhibitor].
